Drawing on PubChem BioAssay AID1346428 (National Center for Advancing Translational Sciences (NCATS), 2018), this text covers activation for 84 compounds.

Several values for one entry are separate records, joined by “and”; a condition that tells them apart may be missing. Equal entries are not always repeated. Hit rate of the full screen: of about 48,000 compounds, about 1,200 (2.5%) were called active. Not shown: some 2% with an inconclusive outcome.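 The calls were made as follows: active = activation of at least 60% and not above a set upper limit (about 1 call in 100 departs from these limits); inconclusive = activation of 40% to 60%, or above that upper limit; inactive = activation under 40%.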 The list shows a part of the results.

Chain of UniProt O75388 (O75388 whole entry, looked up): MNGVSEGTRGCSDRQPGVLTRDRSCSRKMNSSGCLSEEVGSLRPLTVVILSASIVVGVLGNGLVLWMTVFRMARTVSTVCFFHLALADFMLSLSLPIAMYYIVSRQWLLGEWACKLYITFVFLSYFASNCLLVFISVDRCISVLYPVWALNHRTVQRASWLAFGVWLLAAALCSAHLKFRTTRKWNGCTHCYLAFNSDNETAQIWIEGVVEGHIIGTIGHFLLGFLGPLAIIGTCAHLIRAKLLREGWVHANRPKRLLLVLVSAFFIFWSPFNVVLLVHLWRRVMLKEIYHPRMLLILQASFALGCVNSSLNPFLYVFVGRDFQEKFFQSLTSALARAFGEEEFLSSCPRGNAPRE

The target of this test is Probable G-protein coupled receptor 32 (Homo sapiens) (UniProt O75388). In words: qHTS for Agonists of Human Resolvin D1 Receptor DRV1. Also: 0% is about no effect. As to conditions: CHO-K1 GPR32 beta-arrestin PathHunter luminescence, 90 min; at 76.9 µM; active compounds read high; zero percent set by DMSO-only wells. In short, it runs like this:
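Cells are plated overnight, treated with compounds in DMSO for 90 minutes at 37 °C, and developed with PathHunter detection reagent for 1 hour before luminescence is read; signal reflects beta-arrestin binding to GPR32 in engineered CHO-K1 cells.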
In general terms: qHTS replaces the single test concentration by a dilution series.
Turning to `O=C(COc1ccc(Cl)cc1)Nc1cc(-c2ccccc2)no1`, the activation was inactive: -4.79%.
As for `C[C@@H]1C[C@H]2[C@@H]3CCC4=CC(=O)C=C[C@]4(C)[C@@]3(F)[C@@H](O)C[C@]2(C)[C@@]1(O)C(=O)CO`, the activation was inactive: -64.2%.
For `CCn1c(CN2CCN(c3cccc(Cl)c3)CC2)nc2c1c(=O)[nH]c(=O)n2C` the value was inactive: 8.69%; for `Cc1cc2nn(-c3ccc(Cl)cc3)nc2cc1NC(=O)C(C)C`, inactive: 5.05%; for `COCCCNc1ncnc2c1c(-c1ccccc1)cn2-c1ccc(C)c(Cl)c1`, inactive: -11.6%.
As for `O=C(O)COC(=O)Cc1ccccc1Nc1c(Cl)cccc1Cl`, the activation was inactive: -1.19%.
The figure for `COc1ccc(OC)c(CCNC(=O)c2cc3c(-c4ccccc4F)nn(C)c3s2)c1` is inactive: 21.7%; for `COc1ccc(C)cc1NS(=O)(=O)c1ccc2c(c1)[C@H]1C=CC[C@H]1[C@@H](c1cccc(Cl)c1)N2` it is inactive: -52.7%; for `Cc1cc(C)cc(NC(=O)CSCn2nnc3c(=O)[nH]c(Cc4ccc(F)cc4)nc32)c1` it is inactive: 2.74%.
The figure for `COc1ccc(CCNC(=O)CCc2c(C)nc3cc(-c4ccccc4)nn3c2C)cc1OC` is active: 69.7%; for `CCOc1cc(C(=O)Nc2ccc3oc(-c4ccc(CC)cc4)nc3c2)cc(OCC)c1OCC` it is inactive: -7.09%; for `COc1ccccc1CCNC(=O)CCn1c(=O)c2cccn2c2ccc(F)cc21` it is inactive: -17.3%.
In the case of `Clc1nccc2c1ccc1ccccc12`, the activation was inactive: 9.19%.
The figure for `Cc1noc(/C=C/c2ccco2)c1S(=O)(=O)N1CCC(C(=O)Nc2ccc(F)cc2F)CC1` is inactive: -22.8%; for `Cc1cccc(OCc2ccc(-c3nc(C#N)c(N4CCC(C(N)=O)CC4)o3)o2)c1` it is inactive: -8.06%.
For `CCc1cc2c(cc3c(=O)n(CCCC(=O)NCc4ccccc4Cl)nc(CC)n32)s1` the value was inactive: -11.7%; for `CCOC(=O)c1cccc(NC(=O)Cn2c(=O)nc(-c3ccccc3)c3ccccc32)c1`, inactive: 1.59%.
For `O=C(Nc1cc(C(F)(F)F)ccc1Cl)c1cc(S(=O)(=O)NCc2ccccc2)ccc1F` the value was inactive: -10.2%; for `CCCCN(Cc1ccccc1)C(=O)CN(C)S(=O)(=O)c1ccc2c(c1)c(=O)n(C)c(=O)n2C`, inactive: -10.7%; for `Cc1ccc(OCC(=O)Nc2ccc3nc(SCc4ccccc4)sc3c2)cc1`, inactive: -3.37%.
Turning to `CCOC(=O)c1cccc(NC(=O)CC2C(=O)N(c3ccc(F)cc3)C(=O)N2C(C)C)c1` (centres undefined), the activation was inactive: -2.83%.
The figure for `COc1ccc(NC(=O)C(Cc2ccccc2)NS(=O)(=O)c2ccc(Br)s2)cc1OC` (centres undefined) is inactive: -6.17%; for `COCCCNC(=O)CC(c1cc(OC)c(OC)c(OC)c1)N1Cc2ccccc2C1=O` (centres undefined) it is inactive: -7.07%; for `COc1ccc(N2CCN(S(=O)(=O)c3c(C)nc4scc(C)n4c3=O)CC2)cc1` it is inactive: 22.5%.
Consider `Cc1cc(C)c(NC(=O)CSc2nc(C)cc(C)c2C#N)c(C)c1`, for which the activation was inactive: 0.715%.
The figure for `Cc1ccc(C)c(NC(=O)N2CC=C(c3c[nH]c4ccccc34)CC2)c1` is inactive: -24.5%.
As for `Cc1cccc(N(C)C(=O)C(Cc2ccccc2)NS(=O)(=O)c2cccc3nsnc23)c1` (centres undefined), the activation is inactive: -15.9%.
For `O=C(CN1Cc2ccccc2C1=O)Nc1cc(F)ccc1F` the value was inactive: -6.91%; for `COc1ccc(Nc2ccc3cc(S(=O)(=O)N4CCCC4)ccc3n2)cc1Cl`, inactive: -10.6%.
The figure for `COc1ccccc1OCC(=O)N(Cc1ccc(N(C)C)cc1)CC1CCCO1` (centres undefined) is inactive: -10.7%.
In the case of `CCOc1ccc(-n2c(SCC(=O)Nc3ccccc3OC)nc3c(oc4ccccc43)c2=O)cc1`, the activation was inactive: -9.18%.
With `Cc1ccc2oc(=O)c3cnn(CC(=O)N(C)c4ccc(F)cc4)c3c2c1`, the activation is inactive: 8.43%.
The figure for `CC(=O)c1ccc(NC(=O)C2CCN(S(=O)(=O)c3ccc4c(c3)CCCN4C(=O)C3CCC3)CC2)cc1` is inactive: -7.14%; for `COc1ccc(N2CCN(C(=O)Cc3c(C(=O)O)c(C)cn3C)CC2)cc1` it is inactive: -4.29%; for `CCOC(=O)c1c(NC(=O)CCCOc2ccc(C(C)(C)C)cc2)sc2c1CCC2` it is inactive: -8.55%.
For `COc1ccc(-n2nc3ccc(NC(=O)COc4ccc(C)c(C)c4)cc3n2)cc1` the value was inactive: -10.6%.
For `CCc1ccccc1NC(=O)CN(Cc1ccccc1)S(=O)(=O)c1ccc2nc(C)sc2c1` the value was inactive: -8.93%.
Turning to `CCCSc1nc(=O)c2c(n1C)NC(=O)CC2c1cccc(F)c1F` (centres undefined), the activation is inactive: 7.2%.
The figure for `O=C(Cn1c(-c2cccs2)cc2cc(Cl)ccc21)NCc1ccccc1` is inactive: 6.78%.
`Cc1cccc(NC(=O)Cn2cc(S(=O)(=O)c3ccc(F)cc3)c(=O)c3cc4c(cc32)OCO4)c1`: the activation is inactive: -6.29%.
For `CCc1cc(C(=O)Nc2cnn(Cc3ccc(F)cc3)c2)no1` the value was inactive: 9.14%; for `CCC(=O)N1CCc2cc(Br)cc(S(=O)(=O)NCCc3ccccc3Cl)c21`, inactive: 12.7%; for `CC(=O)c1cccc(NC(=O)c2cnn(-c3cccc(C)c3)c2-n2cccc2)c1`, inactive: -9.28%.
The figure for `Cc1ccc(-c2c(C(=O)N3CCN(c4cccc(C)c4C)CC3)oc(=O)c3ccccc23)cc1` is inactive: -0.878%; for `Cc1noc2ncnc(Nc3ccc(F)cc3)c12` it is inactive: 9.54%.
For `Cc1cccc(NC(=O)C(c2ccccc2)N2Cc3ccccc3C2=O)c1C` (centres undefined) the value was inactive: -13.2%.
With `Cc1cccc(NC(=O)CSc2nnc(-c3cccs3)o2)c1`, the activation is inactive: -11.7%.
With `COc1ccccc1N1CCN(C(=O)CCn2cnc3onc(-c4ccc(F)cc4)c3c2=O)CC1`, the activation was inactive: 0.958%.
For `COc1cccc2cc(-c3nnc(Nc4ccccc4C)s3)c(=O)oc12` the value was inactive: -5.52%; for `COC(=O)c1sccc1S(=O)(=O)N(CC(=O)Nc1ccc(C)cc1)c1ccccc1`, inactive: -9.92%.
As for `Cc1cc(C)cc(N2C(=O)CS(=O)(=O)C23C(=O)N(Cc2ccc(F)cc2)c2ccc(C)cc23)c1` (centres undefined), the activation is inactive: -9.68%.
For `COc1ccc(NC(=O)Cn2c(=O)nc(-c3ccccc3)c3ccccc32)cc1OC` the value was inactive: -7.6%.
For `Cc1cc(F)ccc1NC(=O)C1CCCN(c2nnc(-n3c(C)ccc3C)s2)C1` (centres undefined), the activation is inactive: 6.98%.
As for `CCOc1ccc(-c2cc3nc(C4CCN(C(=O)OC(C)(C)C)CC4)c(C(=O)Nc4ccc(C(=O)OC)cc4)cn3n2)cc1`, the activation is inactive: -5.07%.
For `Cc1ccc(CCNC(=O)NCc2noc3ccc(C)cc23)cc1` the value was inactive: -2.56%; for `Cn1ncc(C(=O)N2CCN(c3ccccc3)CC2)c1C1CCN(C(=O)OC(C)(C)C)CC1`, inactive: -8.51%; for `O=C(O)CCCc1ccccc1`, inactive: 6.7%.
For `Cc1cc(C)n2nc(CNC(=O)c3cccc(Cl)c3)nc2n1` the value was inactive: -7.99%; for `CSc1ccc(CCNC(=O)C(C)n2nc(C)c3c(C)n(-c4ccccc4)nc3c2=O)cc1` (centres undefined), inactive: -15.6%.
As for `Cc1cccc(CNC(=O)c2ccc(-c3nc(CS(=O)(=O)c4ccccc4)c(C)o3)cc2)c1`, the activation is active: 79.5%.
For `Cc1ccc(CCNC(=O)Cn2nc(C)c3c(C)n(-c4ccc(C)cc4)nc3c2=O)cc1` the value was inactive: -14.1%.
For `CN(C)c1ccc(-c2nc(-c3ccccn3)no2)cc1[N+](=O)[O-]` the value was active: 75.8%; for `Cc1ccc(NC(=O)COc2ccc3oc4c(c3c2)CCCC4)c(C)c1`, inactive: 23.5%; for `Cc1cc(=O)[nH]c2nnc(SCC(=O)Nc3cc(C(F)(F)F)ccc3Cl)n12`, inactive: 37.9%.
The figure for `COC(=O)c1ccc(Cn2c(=O)cc(C)c3c(C)nn(C)c32)cc1` is inactive: 32.4%; for `Cc1ccc2c(=O)cc(C(=O)Nc3sc4c(c3C(=O)NCc3ccco3)CCCC4)oc2c1C` it is inactive: -15%; for `Cc1ccc2c(CNCc3cccs3)c(C(=O)O)n(Cc3ccc(F)cc3)c2c1` it is active: 91.9%.
As to `CCc1ccc(CNC(=O)c2nn(-c3ccc(C)c(C)c3)nc2CO)cc1`, the activation is inactive: 36.6%.
The figure for `CCC(C)NC(=O)Cn1ncc2c(C)n(Cc3ccc(F)cc3)c(C)c2c1=O` (centres undefined) is inactive: 1.21%.
The figure for `CC(=O)CSc1nc(-c2ccccc2)[nH]c1S(=O)(=O)c1ccc(C)cc1` is inactive: 1.92%; for `CCOc1ccc(Sc2cc(C(=O)NCc3ccc(F)cc3)c3ccccc3n2)cc1` it is inactive: 22.4%.
As for `CN(C)c1ccc(C(CNC(=O)COc2ccccc2)N2CCOCC2)cc1` (centres undefined), the activation is inactive: -9.29%.
For `CCOc1ccc(NC(=O)Nc2c(C)n(C)n(-c3ccccc3)c2=O)cc1` the value was inactive: -1.69%; for `CCN(CC)S(=O)(=O)c1ccc2c(c1)N(CC(=O)NCc1ccccc1)C(=O)CS2`, inactive: -11.4%.
The figure for `Cn1ncc2c(NCc3cccc(Cl)c3)ncnc21` is inactive: 8.4%.
Take `COc1cc(Cl)c(C)cc1NC(=O)CSc1cc(=O)n(C)c2cc(Cl)ccc12`: the activation was inactive: -8.6%.
For `Cc1cnc(NC(=O)C2=C(O)c3ccccc3S(=O)(=O)N2C)s1` the value was inactive: -20.3% and inactive: -10.5%; for `O=C(CN1C(=O)CCSc2ccc(S(=O)(=O)N3CCCC3)cc21)Nc1cccc(Cl)c1`, inactive: -21.3%; for `Cc1c(Cl)cccc1NC(=O)N1CCN(Cc2cc(=O)n3nc(-c4ccccc4F)sc3n2)CC1`, inactive: 0.923%.
For `Cc1nn(C)c2c1c(-c1ccccc1)cc(=O)n2Cc1ccccc1F` the value was inactive: -0.275%.
For `CCCS(=O)(=O)N1CCC(N2CCN(Cc3ccc(C)cc3)C(=O)C2=O)CC1` the value was inactive: -5.27%; for `Cc1ccc(-c2noc(CCC(=O)Nc3ccc(F)cc3Cl)n2)cc1`, inactive: -1.35%.
Take `COc1ccc(NC(=O)c2cccc(N3CCCS3(=O)=O)c2)cc1`: the activation was inactive: 43.2%.
Take `NC(=O)CSc1ncc2c(n1)-c1ccccc1N(Cc1ccccc1)S2(=O)=O`: the activation was inactive: -3.58%.
